# From PubChem BioAssay AID504832 (National Center for Advancing Translational Sciences (NCATS), 2011)
# About 18,000 (5.8%) of roughly 310,000 compounds were called active. This list was built around the results that the source calls inconclusive (neither active nor inactive); the mix of calls is not that of the screen. The call rests on the fitted dose curve; in most records, active means well fitted inhibition curve with a large enough effect; inconclusive means small, poorly fitted or top-dose-only effect, or another doubt; inactive means no such curve, though single readings can be large or run the other way. Potencies of inconclusive entries are left out as doubtful fits.
# Assay: Primary qHTS for delayed death inhibitors of the malarial parasite plastid, 48 hour incubation
# Details: P. falciparum luciferase growth in erythrocytes; series mostly up to 28.7 µM
# Outline: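 A one-generation exposure of luciferase-tagged malaria parasites in RPMI 1640/Albumax erythrocyte culture, 37 C and 5% CO2. Inhibition is inferred from decreased luminescence after adding detection reagent.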
# Potency means the concentration at half of the fitted maximal effect; tags describe the fitted curve by direction and shape.
row,Compound,Potency
1,CC(C)COC(=O)NCC12C=CC(O1)C1C(=O)N(c3ccc(Cl)cc3)C(=O)C12 (centres undefined),inactive
2,CCCC1=C(C(=O)OCC)C(c2ccc(F)cc2)n2ncnc2N1 (centres undefined),"inconclusive [inhibitor, partial curve]"
3,COc1ccc2oc(=O)c(C(=O)NCc3ccco3)cc2c1,inactive
4,CC(=O)Nc1ccc(S(=O)(=O)NCC(=O)OCC(=O)NNC(=O)c2ccccc2)cc1,inactive
5,CCC(=O)N1CCN(c2ccc(NC(=S)NC(=O)COc3ccccc3)cc2)CC1,inactive
6,O=C(NCc1cccnc1)c1ccc(S(=O)(=O)Nc2ccccc2)cc1,inactive
7,Cc1cccc(NC(=O)NNS(=O)(=O)c2ccc(F)cc2)c1,inactive
8,NS(=O)(=O)c1ccc(NS(=O)(=O)c2ccc(NC(=O)C3CC3)cc2)cc1,"inconclusive [inhibitor, partial curve, poor fit]"
9,Nc1ncncc1-c1ccc(Cl)cc1,"inconclusive [inhibitor, single point]"
10,CC(=O)N1CCN(CC(=O)Nc2ccc(Cl)c(S(=O)(=O)N(C)C)c2)CC1,inactive
11,COC(=O)/C(=C\c1ccc2c(c1)c1ccccc1n2C)NC(=O)c1ccccc1,"inconclusive [inhibitor, single point]"
12,Cc1ccc(NC(=O)c2ccc(OC(=O)c3ccco3)cc2)cc1,inactive
13,CCCCS/C(=C(/C#N)C(N)=O)c1cc2c([nH]1)CCCC2,active: 2.94 µM
14,CCCN1CCc2c(sc(NC(=S)NC(=O)c3ccccc3)c2C#N)C1,"inconclusive [inhibitor, single point]"
15,CCOC(=O)N1CCN(C(=O)c2ccc3c(=O)n(CCc4ccccc4)c(=O)[nH]c3c2)CC1,"inconclusive [inhibitor, single point]"
16,O=C(NCC(=O)N(Cc1ccco1)C(C(=O)NC1CCCCC1)c1ccncc1)c1cccs1 (centres undefined),"inconclusive [inhibitor, partial curve, poor fit]"
17,NNc1nnc2c3cc(F)ccc3n(Cc3ccccc3)c2n1,active: 1.47 µM
18,COC(=O)COc1c(/C=C\c2nc(O)c([N+](=O)[O-])c(=O)[nH]2)cccc1OC,"inconclusive [inhibitor, partial curve]"
19,Cc1cccc(OC(C)C(=O)N/N=C\c2ccncc2)c1 (centres undefined),inactive
20,CN(C)S(=O)(=O)c1cccc(C(=O)OCC(=O)Nc2sccc2C(N)=O)c1,active: 1.85 µM
21,O=[N+]([O-])c1ccc(N/N=C2/CCCCC2c2ccccn2)c([N+](=O)[O-])c1 (centres undefined),inactive
22,Cc1cc(=O)n2nc(N3CCCC(C(=O)NCCCN4CC(C)CC(C)C4)C3)sc2n1 (centres undefined),inactive

row,Compound,Potency
1,Fc1ccc(-[n+]2nc(Nc3ccccc3)sc2-c2ccc(OCc3ccccc3)cc2)cc1,inactive
2,NC(=O)C1CCN(S(=O)(=O)c2cc3c4c(c2)CCN4C(=O)CC3)CC1,"inconclusive [inhibitor, single point]"
3,CCOC(=O)c1c[nH]c2c3c(ccc2c1=O)CCCC3,active: 0.329 µM
4,CCOc1ccc(NC(=O)CCNS(=O)(=O)c2ccc3c(c2)CC(C)N3C(C)=O)cc1 (centres undefined),"inconclusive [inhibitor, partial curve, poor fit]"
5,Cc1ccccc1NC(=S)NC(=O)C1CCCCC1,"inconclusive [inhibitor, single point]"
6,CCCCOC(=O)C1=C(N)N2C(=O)C(C)SC2=C(C(=O)OCC)C1c1ccc(O)c(OC)c1 (centres undefined),"inconclusive [inhibitor, single point]"
7,O=C(C#Cc1ccccc1)Nc1ccc(F)cc1,"inconclusive [inhibitor, partial curve]"
8,CCCCn1c(N)c(N(CCC(C)C)C(=O)c2cc(-c3ccco3)nc3ccccc23)c(=O)[nH]c1=O,"inconclusive [inhibitor, single point]"
9,Clc1cccc(Cl)c1C1Nc2cccc3cccc(c23)N1,"inconclusive [inhibitor, partial curve]"
10,CCCCN(C(=O)CSc1c(C)c(C)cc(C)c1C)c1c(N)n(CCC)c(=O)[nH]c1=O,"inconclusive [inhibitor, single point]"
11,CCOC(=O)c1sc(NC(NC(=O)c2ccco2)(C(=O)OC)C(F)(F)F)nc1C (centres undefined),"inconclusive [inhibitor, single point]"
12,COc1ccccc1OCc1ccc(C(=O)NCc2ccco2)o1,"inconclusive [inhibitor, single point]"
13,COc1cc(OC)cc(C(=O)Nc2cccc(C(C)=O)c2)c1,"inconclusive [inhibitor, single point]"
14,COc1ccc(O)c(C(=O)c2cnc3c(c2)c(C)nn3C)c1,"inconclusive [inhibitor, partial curve, poor fit]"
15,NS(=O)(=O)c1ccc(CNc2nc(-c3cccnc3)nc3ccccc23)cc1,"inconclusive [inhibitor, single point]"
16,CCN(CC)C(=O)c1ccc(NC(=O)c2ccc(-n3cncn3)c([N+](=O)[O-])c2)cc1,"inconclusive [inhibitor, single point]"
17,CCOc1ccc2oc(C(=O)N(C)CC(=O)Nc3ccc(OCC)c(OCC)c3)c(C)c2c1,"inconclusive [inhibitor, single point]"
18,Cc1ccccc1C(=O)NC(CC(C)C)C(=O)N1CCN(c2ccccc2)CC1 (centres undefined),"inconclusive [inhibitor, partial curve]"
19,C[C@@H]1NS(=O)(=O)[C@H]2C[C@@H]3C=C[C@]2(O3)[C@H]1OC(=O)c1ccccc1Br,"inconclusive [inhibitor, partial curve, poor fit]"
20,Cc1ccc(/C(O)=C2\C(=O)C(=O)N(Cc3cccnc3)C2c2ccccc2[N+](=O)[O-])cc1 (centres undefined),inactive
21,CC(OC(=O)c1ccc(Cl)c(S(=O)(=O)Nc2ccc(F)cc2)c1)C(=O)NC(N)=O (centres undefined),inactive
22,CCN(CC)CCN(C(=O)c1ccc2c(c1)CCCC2)c1nc2c(C)cccc2s1,active: 9.28 µM
